From the supplement of paper PMC10369915
The other results are listed elsewhere or left out. Cut-off read from the data, not from the text of the source: active = 3.2 or more and inactive = the rest. The signal is at background level for most entries.

Legend:
Assay in all cases: enrichment score (SH2-bound / input frequency) (ratio); bacterial display of known human phosphotyrosine sites (pTyr-Var adds point mutants) read by sequencing; higher = stronger binding; tyrosines were phosphorylated by kinases first
Conditions in all cases: peptide library: pTyr-Var
[1] = molecular target: SHP2 C-SH2 domain E139D
[2] = molecular target: SHP2 C-SH2 domain wild-type
[3] = molecular target: SHP2 N-SH2 domain L43F
[4] = molecular target: SHP2 N-SH2 domain T42A
[5] = molecular target: SHP2 N-SH2 domain T52S
[6] = molecular target: SHP2 N-SH2 domain wild-type

Measured: enrichment score
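Note: displayed peptides selected on beads carrying the immobilized SH2 domain, with library peptides lacking any tyrosine serving as negative controls.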

CRIELYRVVES [IGFBP1_Y181]
inactive: [1] 1.29 | [2] 1.38 | [3] 1.2 | [4] 0.97 | [5] 1.11 | [6] 1.61

YTFTSYYMHWV [IGHV1-46_Y51]
inactive: [1] 1.97 | [2] 1.97 | [3] 1.64 | [4] 1.62 | [5] 1.82 | [6] 1.87

HSGVSYYINLC [IGF2R_Y2024_N2020S]
inactive: [1] 0.58 | [2] 1.07 | [3] 0.637 | [4] 0.657 | [5] 0.545 | [6] 1.12

RLQKLYLDRNL [IGFALS_Y248]
inactive: [1] 1.08 | [2] 0.904 | [3] 1.41 | [4] 1.29 | [5] 0.84 | [6] 0.91

IRTIDYRFTVW [IDS_Y497_YF]
inactive: [1] 1.01 | [2] 1.04 | [3] 1.09 | [4] 0.989 | [5] 0.921 | [6] 1.15

NGVSFYINLCQ [IGF2R_Y2025_YF]
inactive: [1] 0.897 | [2] 1.07 | [3] 0.832 | [4] 0.592 | [5] 0.697 | [6] 1.09

GDPTEYYSTAI [IGSF22_Y501]
inactive: [1] 0.622 | [2] 0.638 | [3] 0.664 | [4] 0.534 | [5] 0.558 | [6] 0.758

NGVSYYINLCQ [IGF2R_Y2025]
inactive: [1] 0.727 | [2] 0.909 | [3] 0.649 | [4] 0.631 | [5] 0.559 | [6] 0.968

QKDTFYGLRSL [IGSF10_Y126]
inactive: [1] 0.809 | [2] 0.753 | [3] 0.847 | [4] 1.15 | [5] 0.641 | [6] 1.16

GKFFQYDTWKQ [IGF2_Y116]
inactive: [1] 1.27 | [2] 0.934 | [3] 1.2 | [4] 0.862 | [5] 0.858 | [6] 0.798

RFQKLYLDRNL [IGFALS_Y248_L244F]
inactive: [1] 0.774 | [2] 0.77 | [3] 0.612 | [4] 0.691 | [5] 0.701 | [6] 0.793

HSGVSYFINLC [IGF2R_Y2024_N2020S_YF]
inactive: [1] 0.979 | [2] 1.38 | [3] 0.642 | [4] 0.815 | [5] 0.714 | [6] 1.36

DRTVHYVDEKG [IFT140_Y216_G212R]
inactive: [1] 0.53 | [2] 0.599 | [3] 0.676 | [4] 0.628 | [5] 0.517 | [6] 0.712

CRIELYRIVES [IGFBP1_Y181_V183I]
inactive: [1] 1.21 | [2] 1.35 | [3] 1.1 | [4] 0.854 | [5] 0.966 | [6] 1.54

QKDIFYGLRSL [IGSF10_Y126_T124I]
inactive: [1] 1.19 | [2] 0.818 | [3] 1.09 | [4] 0.995 | [5] 1.07 | [6] 0.95

IALNSCHSRNC [IFNGR1_Y397_Y397C]
inactive: [1] 1.49 | [2] 1.22 | [3] 1.61 | [4] 1.05 | [5] 1.53 | [6] 1.16

IKIMGSSIRTI [IDS_Y490_Y490S]
inactive: [1] 1.01 | [2] 0.861 | [3] 0.958 | [4] 0.902 | [5] 0.794 | [6] 0.705

DERQPYVHMNG [IGF1R_Y1346_A1347V]
inactive: [1] 0.512 | [2] 0.604 | [3] 0.626 | [4] 0.614 | [5] 0.604 | [6] 0.779

RSHRSYSCQVM [IGLL1_Y192_R189H]
inactive: [1] 1.75 | [2] 1.44 | [3] 1.3 | [4] 1.23 | [5] 1.57 | [6] 1.28
